Whole data set: some 33,000 sequences, median “E-score (-0.5 to 0.5)” near -0.043, cut for the highest 2% near 0.37. The list shows a part of the results.
Target: T1, Upc2 (UniProt Q12151)
T1 sequence: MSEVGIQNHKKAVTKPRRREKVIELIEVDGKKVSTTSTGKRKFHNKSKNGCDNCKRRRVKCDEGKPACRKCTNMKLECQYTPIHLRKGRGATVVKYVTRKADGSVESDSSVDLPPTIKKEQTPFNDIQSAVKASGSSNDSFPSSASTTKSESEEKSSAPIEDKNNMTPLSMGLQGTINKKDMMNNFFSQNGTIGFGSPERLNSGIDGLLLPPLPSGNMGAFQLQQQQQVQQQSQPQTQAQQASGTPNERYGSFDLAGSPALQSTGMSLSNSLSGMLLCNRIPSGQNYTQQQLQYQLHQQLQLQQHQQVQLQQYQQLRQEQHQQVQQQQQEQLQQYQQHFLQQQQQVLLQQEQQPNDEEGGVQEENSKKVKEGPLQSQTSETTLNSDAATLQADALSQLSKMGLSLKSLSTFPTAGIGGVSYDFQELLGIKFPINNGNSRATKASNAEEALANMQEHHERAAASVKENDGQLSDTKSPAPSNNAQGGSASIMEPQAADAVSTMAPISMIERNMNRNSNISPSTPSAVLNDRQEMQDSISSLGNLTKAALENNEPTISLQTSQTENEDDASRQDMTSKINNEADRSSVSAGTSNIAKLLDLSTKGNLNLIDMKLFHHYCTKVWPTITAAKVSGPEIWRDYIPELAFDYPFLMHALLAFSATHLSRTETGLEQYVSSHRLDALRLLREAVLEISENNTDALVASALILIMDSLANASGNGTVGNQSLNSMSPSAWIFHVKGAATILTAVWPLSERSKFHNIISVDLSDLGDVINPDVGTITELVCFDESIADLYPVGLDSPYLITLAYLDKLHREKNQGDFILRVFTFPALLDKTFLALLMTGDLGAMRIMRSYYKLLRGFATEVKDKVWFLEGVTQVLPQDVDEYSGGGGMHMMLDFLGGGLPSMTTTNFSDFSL
Assay: PBM E-score (8-mer binding enrichment) (E-score (-0.5 to 0.5)); higher = stronger / more preferred TF binding; most listed sequences are background and not binding sites
Details: protein concentration: 200 nM; construct: GST-full length
Description: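 Universal 'all 10-mer' protein binding microarrays (Agilent AMADID 015681) probed with GST-tagged S. cerevisiae TFs (full-length or DBD) made by in vitro transcription/translation (PURExpress), about 100-200 nM. Bound TF was detected with fluorescent anti-GST. Each ungapped 8-mer (which stands for itself and its reverse complement) is scored by the PBM enrichment score (E-score), a modified Wilcoxon-Mann-Whitney statistic from -0.5 to +0.5, computed with the Universal PBM Analysis Suite. Scale: above 0.35 generally sequence-specific binding.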

Row | Sequence | PBM E-score
1 | GGTGAGAC | -0.278
2 | GAATTTGC | -0.0648
3 | CTTGAAGC | -0.183
4 | GAACTCAC | -0.0682
5 | ATAGGCGC | 0.0366
6 | GGTGGGTA | -0.0374
7 | CGCGACCA | 0.116
8 | CACGATTA | 0.0433
9 | ATCCTTCG | 0.186
10 | GATGGCAC | -0.112
11 | AGTCTGAC | -0.161
12 | AAAACTGA | -0.0868
13 | ATTGCGGA | -0.141
14 | CCGCAAGG | 0.0456
15 | CTAACGCA | -0.0276
16 | GAGTCCAC | -0.145
17 | ACTCGAAT | 0.0455
18 | CGTAGCGA | 0.331
19 | AGATTATA | -0.00741
20 | ATTCTCCG | -0.0376
21 | AAACACGA | 0.0726
22 | CACACGAG | 0.155
23 | ATTTTGTA | 0.0656
24 | TCAGCGAA | 0.0363
25 | CAGCTTCA | -0.051

Row | Sequence | PBM E-score
26 | GCGCTACC | 0.033
27 | AAGAAGCA | -0.101
28 | TTATCAAA | 0.074
29 | TATGAACA | 0.00395
30 | GCGAGGCA | 0.195
31 | AAGACGCT | -0.145
32 | ATTTAATA | 0.0458
33 | AAATGGAA | -0.177
34 | GTGAGGTA | -0.251
35 | CAGCCACC | -0.259
36 | AGTAATAT | 0.141
37 | CTCAGACC | -0.226
38 | CACAAAAG | -0.0256
39 | CAGGGCTC | -0.149
40 | CGAGAAAA | 0.106
41 | CTAATCGC | 0.0123
42 | CTGCAATC | -0.03
43 | TAAGATGA | -0.0958
44 | ATCCGTAG | -0.00695
45 | GACAATAC | 0.132
46 | CCTCGACA | -0.127
47 | CTGTCAGA | -0.0794
48 | CTACAGTA | -0.16
49 | GGAAATAC | 0.126
50 | AGCGTTAC | 0.0438

Row | Sequence | PBM E-score
51 | ATGGAGAA | -0.12
52 | AGTCCGAC | -0.177
53 | AGAACGGA | 0.0565
54 | ATATAGAC | -0.0241
55 | CACCGTAA | 0.32
56 | CCCCAGAC | -0.232
57 | ACGCAACG | 0.151
58 | AAAACTCG | 0.16
59 | TCACTGAA | 0.0417
60 | CATCTCTC | -0.069
61 | AGTCGTTC | 0.41
62 | AGATGGAT | -0.281
63 | ACTCAAAA | 0.029
64 | CACCTCGA | 0.135
65 | CCCAGGTC | -0.135
66 | ATTCTTAC | -0.0183
67 | CCTGCGCC | -0.238
68 | ATTAGAGG | -0.284
69 | AGACATCA | -0.192
70 | CAGGGTTA | -0.0995
71 | ACTGTCAC | -0.115
72 | AGGTGTTA | -0.101
73 | CGACGTCC | 0.13
74 | ACAATAAA | 0.0542
75 | CCCGTTAA | 0.322

Row | Sequence | PBM E-score
76 | GCTCGAGA | -0.135
77 | ACGACGCT | 0.361
78 | ATAGCTAC | -0.0117
79 | AACATTGG | -0.329
80 | GCCGTTGA | -0.102
81 | GCTTATGA | 0.0621
82 | GTTGTACA | 0.0854
83 | GGCCATGA | -0.134
84 | AAGGGTCG | 0.126
85 | GTAGTGAC | -0.17
86 | CGCATCCA | 0.0543
87 | AGGCATTA | -0.165
88 | CATCGACG | -0.193
89 | GGCTGTAA | -0.0429
90 | CGGGGTCC | -0.0957
91 | AGATCTCA | 0.0408
92 | GCTCGATA | -0.0813
93 | GAGAACGA | 0.36
94 | AAACAACA | -0.0144
95 | CGATTATC | 0.0988
96 | ACGCCACC | -0.058
97 | ATAATTTG | 0.0757
98 | TCTGAAGA | -0.197
99 | TCTCTGCA | -0.139
100 | CCACATCG | 0.0288

Row | Sequence | PBM E-score
101 | CGGGGATA | -0.039
102 | AAGTTGTA | 0.123
103 | ACACGGCC | -0.126
104 | CCAACCAA | -0.131
105 | CGCTGAGC | 0.00368
106 | CCTACGAC | 0.232
107 | TCGTAAAA | 0.481
108 | CTATGGCA | -0.119
109 | TCATGCCA | 0.0205
110 | CAGCCCTC | -0.0814
111 | AGGCGGTG | -0.0842
112 | ACTAGCCG | -0.143
113 | CCTCTGCA | -0.234
114 | TCTTTTAA | 0.264
115 | CTCTCCAA | -0.0403
116 | ATGGCACA | -0.132
117 | CCGTTGAG | -0.109
118 | AGTTGGGC | -0.0112
119 | GGTTTTTA | -0.072
120 | GACCGAAA | 0.0604
121 | CCGCGGGA | -0.164
122 | ACCGTAAG | 0.185
123 | AAGTCTCG | 0.141
124 | CAAAAGTA | 0.0952
125 | ACTAACTA | -0.0101

Row | Sequence | PBM E-score
126 | CCGGAGGA | -0.267
127 | ATGGGCTA | -0.00473
128 | AGGGGAAG | -0.0649
129 | CCTGTGTC | -0.0613
130 | CGTAGTAC | 0.197
131 | GATCGGGA | -0.107
132 | CTAAATAG | -0.181
133 | AGTCAATG | -0.127
134 | AAAGGGGT | -0.194
135 | CCTACTTC | -0.114
136 | ATATACAC | 0.193
137 | AACAACGG | -0.0411
138 | CCGCTCAA | -0.155
139 | GCCTCCGA | -0.185
140 | ATCAGCGC | -0.0538
141 | AGACACTG | -0.0695
142 | CTGCATCA | -0.166
143 | GGAGGAAC | 0.0433
144 | CGGTCAAA | 0.169
145 | ATAAGGCG | 0.114
146 | AGCTCAAA | 0.117
147 | CGACGTGA | 0.151
148 | ATCTCAAG | -0.196
149 | AGGCTTGA | -0.192
150 | CAAGACTC | -0.0211

Row | Sequence | PBM E-score
151 | CCGGTCAA | -0.0371
152 | CGGCACCC | -0.202
153 | CATCGCGA | 0.152
154 | CCAGTTCA | -0.172
155 | GAGGATAC | 0.14
156 | CCTCAGTA | -0.0614
157 | AATCATTA | -0.00862
158 | CAGGTGGC | -0.221
159 | ATAGTTGC | -0.107
160 | ACTTGAAT | -0.047
161 | ACCAGCCG | -0.104
162 | CGTAGTCA | 0.0064
163 | TACAGAAA | 0.0627
164 | CGACCTCC | 0.175
165 | ATGCAGAG | -0.261
166 | ATGGCGAA | -0.0883
167 | GACAACTC | -0.0153
168 | ACCCCCTC | -0.368
169 | CCATGGTC | -0.202
170 | AAAAACAA | 0.0562
171 | CGTCCTCA | -0.0832
172 | GGCTGAGA | -0.243
173 | CAGCCCCC | -0.131
174 | CTGGGAGA | -0.296
175 | AGCTGGGG | -0.226

Row | Sequence | PBM E-score
176 | GTACCGAA | 0.12
177 | CGCACCAA | 0.0612
178 | ACGAATTC | 0.241
179 | GGGATCGA | 0.0321
180 | ACCGTACC | 0.366
181 | GTCCATCA | -0.187
182 | GTAAGGCA | 0.0637
183 | AGGTCCCG | 0.0988
184 | CACGGCTG | -0.267
185 | CCCCCGGC | -0.305
186 | ATATGGAG | -0.0882
187 | GATCCCGA | -0.159
188 | CATTAGCA | -0.117
189 | TGACCTAA | 0.147
190 | AGGTGACT | -0.0583
191 | CTTTCCGC | -0.0854
192 | CCACATTC | -0.14
193 | GCAGATCC | -0.161
194 | AGGGGGCC | -0.255
195 | CTAAGATC | -0.00734
196 | CCCAATAG | -0.155
197 | AGCGTTTC | 0.0667
198 | GCGTCCGA | 0.0827
199 | GGTAGGTA | 0.0674
200 | ATCCTGTG | -0.233

Row | Sequence | PBM E-score
201 | GATAGACA | -0.108
202 | CCAGTCGG | -0.0866
203 | ATGGGCGG | 0.0321
204 | AATAATTA | 0.0672
205 | AAGTATGG | -0.227
206 | ATTAGTAC | 0.0857
207 | CGAGCACA | 0.0999
208 | GAATGTAA | 0.0274
209 | CGCGCTAA | 0.184
210 | AGCCTTTG | -0.129
211 | AACGGAAT | 0.139
212 | ACAGCCGA | -0.19
213 | ACGTAGCA | 0.0515
214 | AAGGTTAA | -0.0294
215 | CGACGACC | 0.0755
216 | CGCCTTCC | -0.139
217 | ATTCCAAC | 0.0482
218 | GCCCGGCC | -0.23
219 | AAACATTC | 0.0717
